The chains are these.
T1: UNK ZnF1-6 (called full-length) (human, UniProt Q9C0B0 30-357)
T1 sequence: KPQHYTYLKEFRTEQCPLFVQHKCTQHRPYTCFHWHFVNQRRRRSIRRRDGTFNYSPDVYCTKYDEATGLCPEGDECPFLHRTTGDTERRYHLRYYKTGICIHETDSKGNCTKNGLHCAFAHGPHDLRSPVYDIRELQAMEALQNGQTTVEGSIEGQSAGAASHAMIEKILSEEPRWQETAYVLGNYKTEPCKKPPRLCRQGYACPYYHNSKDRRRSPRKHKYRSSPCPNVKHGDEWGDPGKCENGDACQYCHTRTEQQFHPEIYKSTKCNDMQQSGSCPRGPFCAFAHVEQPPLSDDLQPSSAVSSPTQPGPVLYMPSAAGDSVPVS

B1: chr2:223959526:223959698:+|CDS|ENSG00000135900|unk|total|mutant (ssRNA)
RNA: GGGAGUUCUACAGUCCGACGAUCCUGGGAUUACCAUGCAGAAAUACAAGCUUUUGGACAUCGGUUACAGGAAAACUUUUCCUCCGAUCUUCUCAAAACUGCAUUUGUUAACCGCUGCUAUAUUAAAAGUGAGGAGGCCAAACGCAACAGAGGAUUGAGCAUCA
B2: chr5:157463210:157463311:+|CDS|ENSG00000172548|unk|FALSE|unique (ssRNA)
RNA: GGGAGUUCUACAGUCCGACGAUCCAGGAAAGAAUCAGGCAGAACUAUGGCUUCUACAUCGGCCUGGGCCUGGCAUUCCUGUCUAGCUUCCUCAUCGGCAGCAGCGUCAUCCUCAAGAAGAAAGGCCUCUUGCGACUCGUGGCCCAACAGAGGAUUGAGCAUCA
B3: ENSG00000107863:be:win_2451|CDS|ENSG00000107863|bound_else_gene|NA|bound_elsewhere_windowed (ssRNA)
RNA: GGGAGUUCUACAGUCCGACGAUCUGAUAUUGCACAUAUCCCUGCCUCUGCUGUUAUAUCAGCCUCUACCUCUCAGGUCCCCUCCAUAGCAACAGUUCCUCCUUGCCUCACAACUUCAGCUCCAUUAAUUCGCCGUCAGCUCUCCAACAGAGGAUUGAGCAUCA
B4: chr9:19276226:19276327:+|CDS|ENSG00000137145|unk|total|mutant (ssRNA)
RNA: GGGAGUUCUACAGUCCGACGAUCCUUUGUCGCCGCUGGUCUCACUGACACAUCUACUCUUUUGGAUCAAGAAAUAAAUCGUUCCGAUACUAAGUCAACUGGACCUAAAGCUCCAAUUACAGACAUUGCCAUUAUUAUCAAAUCCAACAGAGGAUUGAGCAUCA
B5: chr21:26917921:26924620:-|three_prime_utr|ENSG00000154736|control|control|control (ssRNA)
RNA: GGGAGUUCUACAGUCCGACGAUCAGGAUUCCUGAAGGGGCAACCCACAUAAAAGUUCGACAGUUCAAAGCCAAAGACCAGACUAGAUUCACUGCCUAUUUAGCCCUGAAAAAGAAAAACGGUGAGUACCUUAUCAAUGGAAAGCAACAGAGGAUUGAGCAUCA
B6: ENSG00000107863:be:win_2651|CDS|ENSG00000107863|bound_else_gene|NA|bound_elsewhere_windowed (ssRNA)
RNA: GGGAGUUCUACAGUCCGACGAUCAGGGUCUGGAUGAUUACAGAGAAGAUGCAAAAUUGUCCUUUAAGCACGUAUCUAGUCUGAAGGGAAUCAAGAUCGCAGACAGCCAAAAGUCAUCAGAAGACUCUGGGUCCAGAAAAGAUUCAACAGAGGAUUGAGCAUCA

The other results are listed elsewhere or left out.

The target of the experiment is T1, UNK ZnF1-6 (called full-length). The experiment can be described thus: nsRBNS (natural sequence RNA bind-n-seq); RBNS binding buffer (assumed for nsRBNS): 25 mM Tris pH 7.5, 150 mM KCl, 3 mM MgCl2, 0.01% Triton X-100, 500 ug/ml BSA, 20 U/ml SUPERase-In, 4 C; UNK is unkempt and MSI1 is Musashi-1; names of the RNAs are library labels; protein concentration not given here; high values mean tight binding.
B1 had a binding signal of 0.446 enrichment R. For B2 the value was 0.816 enrichment R.

Consider B3, for which the binding signal amounted to 1.12 enrichment R. Molecule B4 had a binding signal of 0.34 enrichment R. For B5 the value was 0.599 enrichment R; for B6, 0.449 enrichment R.
